# Measured values: PubChem BioAssay AID2107 (National Center for Advancing Translational Sciences (NCATS), 2009)
# Hit rate of the full screen: of about 240,000 compounds, about 20 (0.008%) were called active. This list was built around the results that the source calls inconclusive (neither active nor inactive); the mix of calls is not that of the screen. Calls come from the whole dose curve; as a rule, active = well fitted inhibition curve with a large enough effect; inconclusive = small, poorly fitted or top-dose-only effect, or effect the other way; inactive = flat fitted curve, though single readings scatter. Potencies of inconclusive entries are left out as doubtful fits.
# Biological target: Alpha-galactosidase A (Homo sapiens) (UniProt P06280)
# Chain of UniProt P06280 (P06280 whole entry, looked up): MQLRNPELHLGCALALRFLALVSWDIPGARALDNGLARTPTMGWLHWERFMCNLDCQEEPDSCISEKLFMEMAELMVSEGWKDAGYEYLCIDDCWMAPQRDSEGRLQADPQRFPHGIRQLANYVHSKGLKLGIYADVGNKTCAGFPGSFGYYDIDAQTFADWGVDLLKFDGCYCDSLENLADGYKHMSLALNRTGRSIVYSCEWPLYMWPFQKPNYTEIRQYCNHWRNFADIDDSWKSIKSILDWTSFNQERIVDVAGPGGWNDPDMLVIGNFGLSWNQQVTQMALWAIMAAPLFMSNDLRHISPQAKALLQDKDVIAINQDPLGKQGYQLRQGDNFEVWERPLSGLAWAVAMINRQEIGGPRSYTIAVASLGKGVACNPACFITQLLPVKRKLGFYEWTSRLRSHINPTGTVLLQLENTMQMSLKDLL
# Assay: qHTS Assay for Inhibitors and Activators of Human alpha-Galactosidase From Spleen Homogenate;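 for activity change, negative = inhibition: 0% = enzyme with vehicle and -100% = no enzyme basal signal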
# Conditions: 4MU-alpha-Gal fluorescence, 40 min; activity change, negative = inhibition: at 80 µM (top of the series)
# Method in brief: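 qHTS titration in buffer at pH 5.0. Alpha-galactosidase activity in spleen homogenate was measured via 4-methylumbelliferone release from 1 mM fluorogenic substrate after 40 min at 37C and a pH 10 stop. AC50 came from Hill fits of control-normalized data.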
# Potency is the fitted concentration of half-maximal effect; tags give direction and shape of the fitted curve.
Structure (SMILES),Potency,"activity change, negative = inhibition"
COc1cc(OC)c(-c2nn3c(-c4cccnc4)nnc3s2)cc1OC,"inconclusive [activator, single point]",–
COCCn1cc(C(=O)N2CCCC(C)C2)c2c3ccccc3n(C)c2c1=O (stereo not given),"inconclusive [activator, single point]",–
CC(C)c1ccc2c(c1)C1(NN=C(c3ccccc3)S1)C(=O)N2 (stereo not given),–,inactive: 3.26%
NC(=O)c1ccc(SCC(=O)NC2CCCCC2)c([N+](=O)[O-])c1,–,inactive: -3.32%
O=C(NC(=S)Nc1ccc(S(=O)(=O)N2CCCCC2)cc1)c1ccc(Cl)cc1,–,inactive: -3.81%
Cn1c(=O)[nH]c(=O)c2c1nc(N1CCN(Cc3ccccc3)CC1)n2CCCc1ccccc1,"inconclusive [inhibitor, single point]",–
CCCCOc1ccc(C2OC34CCCCC3C(C#N)(C#N)C2(C#N)C(=N)O4)cc1 (stereo not given),"inconclusive [activator, partial curve]",–
COC(=O)/C=C/c1cccc([C@H]2[C@@H]3C=CC[C@@H](C)[C@@H]3C(=O)N2Cc2ccccc2)c1,"inconclusive [inhibitor, partial curve, poor fit]",–
COc1cccc(C(=O)N(Cc2ccc(N(C)C)cc2)C2CCS(=O)(=O)C2)c1 (stereo not given),"inconclusive [inhibitor, single point]",–
CCOCCCNC(=S)Nc1ccc(S(N)(=O)=O)cc1,–,inactive: 8.21%
O=C1CCC=C1[C@@H](O)CCc1ccccc1,–,inactive: 5.35% [at 17.5 µM]
O=c1c2c3c(sc2nc2sc(CN4CCCCC4)cn12)CCCC3,–,inactive: -14.4%
CC(C)C[C@@H]1NC(=O)[C@H](C(C)C)NC(=O)c2cc([N+](=O)[O-])cc(I)c2NCC[C@@H](C(N)=O)NC1=O,–,inactive: 0.553%
Cc1cc(-c2nc3cccnc3s2)ccc1NS(=O)(=O)c1cccs1,"inconclusive [activator, partial curve]",–
Cc1ccccc1-n1c(=O)cc(NCC2CCCO2)[nH]c1=O (stereo not given),"inconclusive [inhibitor, single point]",–
CC(=O)N=c1c(C#N)cc2c(=O)n3ccccc3nc2n1CCCOC(C)C,"inconclusive [activator, partial curve]",–
CCOc1ccc(CN2CCN(c3cc(C)nc4c5c(C)cc(C)nc5nn34)CC2)cc1,"inconclusive [activator, partial curve]",–
COC(=O)CNC(=O)CSc1nc(N)cc(=O)[nH]1,"inconclusive [inhibitor, single point]",–
CCCCC1(C)Nc2ccccc2-c2nc3ccccc3n21 (stereo not given),"inconclusive [activator, partial curve]",–
c1ccc2c(c1)NC1(CCCCC1)n1c-2nc2ccccc21,"inconclusive [activator, single point]",–
Cn1c(C(=O)N2COCC2(C)C)cc2c(=O)n3ccccc3nc21,"inconclusive [activator, partial curve]",–
CCN(Cc1ccccc1)C(=O)c1c[nH]c2ccc(S(=O)(=O)N(C)CCC#N)cc2c1=O,"inconclusive [activator, single point]",–
O=C(c1ccco1)N1CCC2(CC1)CCN(c1ccncc1)CC2,–,inactive: -2.82%
CCCc1cc2c(OC(=O)CC)c(-c3ccc(C(=O)OCC)o3)c(=O)oc2cc1OC,"inconclusive [activator, single point]",–

Structure (SMILES),Potency,"activity change, negative = inhibition"
COc1cccc(C(=O)N/N=c2\oc3c(OC)cccc3cc2C(=O)NCc2ccccc2)c1,–,inactive: 7.15%
CN(Cc1ccccc1)C(=O)c1c[nH]c2ccc(S(=O)(=O)N3CCOCC3)cc2c1=O,"inconclusive [activator, partial curve]",–
CCCc1c(O)c2ccccc2n(-c2ccccc2)c1=O,"inconclusive [inhibitor, full curve, poor fit]",–
CC(C)OCCCn1c(=NC(=O)c2cccs2)c(C#N)cc2c(=O)n3ccccc3nc21,"inconclusive [activator, partial curve]",–
Oc1ccc2ccccc2c1N=Nc1ccccn1,–,inactive: 1.27%
Cc1nc2ccccc2nc(=O)c1NNc1ccccc1,–,inactive: 7.93%
O=S(=O)(c1cccc(-c2cn3cccnc3n2)c1)N1CCOCC1,"inconclusive [activator, partial curve]",–
O=C1c2ccccc2C(=O)N1CN(C(=O)COc1ccc(Cl)cc1Cl)c1cccc(F)c1,"inconclusive [inhibitor, single point]",–
Cc1cc2nc(-c3cccnc3SCC(=O)NCc3ccco3)[nH]c2cc1C,"inconclusive [activator, single point]",–
COc1cccc(-n2nc3c(-n4ncc(C#N)c4N)nnc(C)c3c2C)c1,"inconclusive [inhibitor, single point]",–
CCN1c2ccccc2-c2nc3ccccc3n2C1c1ccccn1 (stereo not given),"inconclusive [activator, partial curve]",–
On1c2c(c3c4nonc4ccc31)CCCC2,"inconclusive [inhibitor, single point]",–
Cc1ccc(NC(=O)c2cc(-n3cnnc3)ccc2Cl)cc1,–,inactive: 0.25%
COc1ccc(-c2csc(-c3[nH]cnc3N)n2)cc1,–,inactive: -2.04%
Nc1nnc(SCCCC(=O)c2ccc(Br)cc2)s1,–,inactive: 5.81%
NC(=O)c1ccc(C[C@H](C(=O)O)N2C(=O)c3ccc(C(=O)O)cc3C2=O)cc1,–,inactive: -5.2%
COC(=O)c1sc2cnccc2c1N,"inconclusive [activator, partial curve]",–
COc1ccc(Nc2ncnc3sc(-c4ccccc4)cc23)cc1,"inconclusive [activator, single point]",–
CCCCCCCCCCCCC/C=C/[C@@H](O)[C@H](CO)NC(C)=O,–,inactive: 2.73%
CCN1C(=O)/C(=C2\SC(N3CCCCC3)=NC2=O)c2ccccc21,"inconclusive [activator, full curve, poor fit]",–
CC(C)C(=O)N1N=C(c2ccc(NS(C)(=O)=O)cc2)CC1c1cccs1 (stereo not given),"inconclusive [activator, single point]",–
O=c1c(-c2ccc(F)cc2)nc2cnc(N3CCOCC3)nc2n1CCc1ccccc1,"inconclusive [activator, single point]",–
CCCCN(C)C(=O)Cn1cnc2sc(C)cc2c1=O,"inconclusive [activator, single point]",–
COc1ccc2[nH]cc(CCNc3ccnc(-c4cccc(NS(C)(=O)=O)c4)n3)c2c1,"inconclusive [inhibitor, single point]",–

Structure (SMILES),Potency,"activity change, negative = inhibition"
Cc1ccc(CN2CCSc3ccc(C(=O)NCc4cccnc4)cc32)cc1,"inconclusive [activator, single point]",–
N#Cc1nc(-c2cccc3ccccc23)oc1NCCN1CCOCC1,"inconclusive [activator, partial curve]",–
CC(C)[C@@H]1NC(=O)[C@H](CCCCN)NC(=O)[C@@H](Cc2c[nH]c3ccccc23)NC(=O)[C@H](Cc2ccc(O)cc2)NC(=O)[C@@H](NC(=O)[C@H](N)Cc2ccccc2)CSSC[C@@H](C(=O)N[C@@H](Cc2c[nH]c3ccccc23)C(N)=O)NC1=O,–,inactive: -10.2%
Nc1n[nH]c(N)c1N=Nc1ccc2c(c1)OCO2,–,inactive: -3.38%
O=C1OCCN1C(=O)[C@H]1[C@H](c2ccc(Cl)cc2)C(c2cccc(Cl)c2)=NN1c1ccc(Br)cc1,"inconclusive [activator, partial curve]",–
CSc1nnnn1-c1ccc(C(=O)O)cc1,–,inactive: -2.8%
C[n+]1c2n(c3ccccc31)N=C(c1ccc(-c3ccccc3)cc1)CS2,–,inactive: 0.918%
CCC(C)n1c(-c2cccc(S(=O)(=O)N(CC)CC)c2)n[nH]c1=S (stereo not given),–,inactive: 5.45%
COc1ncc2nc(-c3cn(C)c4ccccc34)c(=O)n(CCC#N)c2n1,–,inactive: 0.583%
COCCNC(=O)c1ccc2c(=O)n(CCOC)c(=O)[nH]c2c1,"inconclusive [activator, partial curve]",–
CCOC(=O)c1cnc2c(OC)cccc2c1N1CCN(c2ccccc2OC)CC1,"inconclusive [inhibitor, full curve]",–
CNc1oc(/C=C/c2ccccc2)nc1C#N,"inconclusive [activator, partial curve]",–
Cn1c(=O)oc2cc(S(=O)(=O)Nc3ccc4c(c3)OCO4)ccc21,"inconclusive [inhibitor, single point]",–
OCCNc1nc(-c2ccccc2)c2ccccc2n1,"inconclusive [activator, partial curve]",–
Cc1ccc(-c2nnc(SCC(=O)Nc3cccc(C(=O)N4CCOCC4)c3)n2C)cc1,"inconclusive [activator, single point]",–
Cc1c(OCc2nn[nH]n2)ccc2c(-c3ccccc3)cc(=O)oc12,–,inactive: -1.78%
O=C(C1CCC(CNc2c(N3CCCCC3)c(=O)c2=O)CC1)N1CCCCC1 (stereo not given),–,inactive: -2.22%
COc1ccc(/C=N/Nc2ncnc3sc4c(c23)CCCC4)cc1O,–,inactive: 4.96%
COc1ccccc1NC1=C(N2CCCCC2)C(=O)c2ccccc2C1=O,–,inactive: 1.32%
O=C(COc1ncnc2ccccc12)NCc1ccco1,"inconclusive [inhibitor, single point]",–
COc1ccccc1-n1c(N)c(C(=O)NCC2CCCO2)c2nc3ccccc3nc21 (stereo not given),"inconclusive [activator, partial curve]",–
CCC(CC)C(=O)N1N=C(c2ccc(NS(C)(=O)=O)cc2)CC1c1ccccc1 (stereo not given),"inconclusive [activator, single point]",–
